Data published in article PMC12040169 (PLOS Biology, 2025).
This is one part of the list.

What follows are compounds tested on T1, C. trachomatis L2/434/Bu expressing GFP (CTL2-GFP). Conditions: total inclusion area; 28.5 h, 10 µM; inhibitor.
T1 construct: L2/434/Bu GFP intracellular growth in HeLa cells
Set-up: species or system HeLa; C. trachomatis total inclusion area by high-content imaging, normalised to DMSO
How it was run: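 Post-fluorescence-read fixation, DNA staining with Hoechst and high-content imaging; GFP inclusion area and number per well, and nuclei counts, used as proxies for bacterial growth and host viability.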

Structure (SMILES) | % of control remaining
COc1ccc2c(c1)OC1(CCN(C(=O)C3CCCC3)CC1)CC2O (stereo not drawn) [CBK286400] | 112.863
CCC(CC)C(=O)N1CCN(Cc2ccccc2)CCC1=O [CBK284830] | 90.7195
COc1ccc(C2C(C(=O)c3ccccc3)=C(O)C(=O)N2CCN(C)C)cc1OC (stereo not drawn) [CBK263352] | 93.6853
O=C(CN1C(=O)COc2ccccc21)NC1CC1 [CBK270261] | 105.226
Cc1cccc(/C=C2/SC(=S)N(CC(=O)O)C2=O)n1 [CBK265146] | 78.4002
O=C(O)CC(NC(=O)C(c1ccccc1)c1ccccc1)c1ccco1 (stereo not drawn) [CBK268729] | 119.775
COc1ccccc1N1CCN(C2CCN(Cc3ccc([N+](=O)[O-])cc3)CC2)CC1 [CBK264734G] | 89.5331
Cc1n[nH]c(C)c1Sc1ccccc1/N=C/c1ccc([N+](=O)[O-])cc1 [CBK262045] | 102.473
Oc1cccc(OCCOc2nc3cc(Cl)c(Cl)cc3nc2N2CCCC2)c1 [CBK115778] | 90.6394
Cc1nc2c(c(=O)[nH]1)CCN(C(=O)c1cc(C3CC3)oc1C)C2 [CBK283753] | 110.799
CCN1CCN(C(=O)CN(C)S(=O)(=O)c2ccc(OC)c(C)c2)CC1 [CBK268880] | 65.743
CCOc1ccc(-c2c3c(c(-c4ccccc4)n2-c2ccc(N)cc2)C(=O)c2ccccc2C3=O)cc1 [CBK262685] | 73.9115
CCc1nn(CC(=O)NC2CCCC2)c(=O)c2cc3sccc3n12 [CBK284077] | 91.1833
Cc1cc(-c2nnc(NCc3ccnn3C)o2)c(C)o1 [CBK306446] | 26.1251
CC(=O)c1ccc(N2CCN(S(=O)(=O)c3ccc(O)c(C(=O)O)c3)CC2)cc1 [CBK296961] | 95.7657
N=c1n(CC(=O)c2ccc(-c3ccccc3)cc2)c2ccccc2n1Cc1ccccc1 [CBK262128B] | 78.4798
CCc1cc(C(=O)NC(CCn2ccnc2)c2ccccc2)cc(=O)[nH]1 (stereo not drawn) [CBK306679] | 61.7671
O=C(CSc1nc2ccccc2nc1N1CCCC1)N1CCN(c2ccccc2)CC1 [CBK293977] | 118.294
Cn1cc(CN2CCOC(c3nc(C(C)(C)C)cs3)C2)nn1 (stereo not drawn) [CBK304783] | 93.0218
Cc1nc(C)n(CC2CCCN(Cc3nc4ccccc4o3)C2)n1 (stereo not drawn) [CBK305828] | 57.0744
Cc1cc(C(=O)Nc2nncs2)c2ccc(F)cc2n1 [CBK297738] | 92.7688

Structure (SMILES) | % of control remaining
Cc1cc(C)n(C(C)CNC(=O)C(C)n2ccnc2)n1 (stereo not drawn) [CBK282049] | 98.2788
COc1ccc(NC(=O)CS(=O)(=O)Cc2ccccc2)c([N+](=O)[O-])c1 [CBK266748] | 107.215
O=C(c1cscn1)N1CCC(Cc2ccccc2)CC1 [CBK200188] | 59.3606
O=C(CN1CCCC1c1ccc(Nc2ccc(F)cn2)cn1)Nc1ccc(F)cc1 (stereo not drawn) [CBK285941] | 109.403
O=C(NC1CCCC1)c1ccc2ncccc2c1 [CBK200118] | 93.7661
C=C(C)CN1CCN(C(=O)CSc2nccc3ccccc23)CC1 [CBK282712] | 107.333
CN1C[C@@H](NS(=O)(=O)c2ccc(C#N)cc2)C[C@H]1c1nc(-c2ccncc2)no1 [CBK288871] | 108.907
CN1CCN(C(=O)c2ccc3nc(-c4ccccc4)c(-c4ccccc4)nc3c2)CC1 [CBK267257] | 85.542
COc1ccccc1C1(CCNCc2ccc3c(c2)OCO3)CCOC(C)(C)C1 (stereo not drawn) [CBK265599G] | 72.8205
COc1ccc(CN2C(=O)CC(C(=O)O)S/C2=N\c2ccc(Cl)cc2)cc1 (stereo not drawn) [CBK287259] | 66.1176
CC(CCN(C)CCN(C)C)c1ccccc1 (stereo not drawn) [CBK261871] | 99.0144
CCN1CCCCC1CNC(=O)Cn1nc(C)c(C)c1C (stereo not drawn) [CBK282208] | 99.9986
C(=N\n1cnnc1)/c1ccccc1OCc1cccc2ccccc12 [CBK263864] | 99.1223
COc1cc(-c2ccc(/N=C/c3ccccc3O)c(OC)c2)ccc1/N=C/c1ccccc1O [CBK261089] | 89.869
Cc1cccc(NC(=O)NCc2ccccn2)c1 [CBK269422] | 84.9285
O=C(CN1C(=O)c2ccccc2C1=O)NCc1ccc(C(=O)O)cc1 [CBK262795] | 95.323
O=S(=O)(CCc1ccccc1)N1CCCn2nc(-c3ccncc3)cc2C1 [CBK288608] | 100.114
Cn1cc(Cl)c(C2CCCCCN2C(=O)c2ccco2)n1 (stereo not drawn) [CBK285105] | 116.212
CCc1ccc(CNC(=O)Cn2nnc(-c3ccc(CNCCc4ccc(OC)c(OC)c4)cc3)n2)cc1 [CBK155008T] | 24.7638
Cc1nc(C)c(C(=O)N2CCC(c3cc4cnccc4[nH]3)CC2)s1 [CBK283432] | 47.2049
Cc1oc2nc(SCC(=O)NCc3cccnc3)nc(N)c2c1C [CBK266178] | 97.5525

Structure (SMILES) | % of control remaining
O=C(c1cnn(-c2ccccc2)c1)N1CCc2[nH]c3ccccc3c2C1 [CBK281853] | 118.207
CCCN(CC(=O)NCc1ccco1)Cc1nnc(-c2ccco2)o1 [CBK305302] | 19.3894
OCCN1CCN(Cc2cc(Br)cs2)CC1 [CBK261758] | 111.622
Cc1nccn1CCCNC(=O)c1cccc(N2CCCCC2)c1 [CBK281646] | 85.9558
CCn1c(Cc2ccccc2)nnc1SCC(=O)Nc1cc(Cl)ccc1O [CBK268689] | 87.3267
CCOC(=O)CN1CCCN(c2ccnc(OC3CCCCC3)n2)CC1 [CBK083864] | 72.624
CCCn1cnnc1C(C)NC(=O)N(C)Cc1nc2cccc(C)c2[nH]1 (stereo not drawn) [CBK307551] | 37.3417
Cc1ccc(NCC2CCN(c3cc(=O)n4oc(C)cc4n3)C2)nc1 (stereo not drawn) [CBK305827] | 90.4303
c1ccc(Oc2nc3ccccc3n3cnnc23)cc1 [CBK287945] | 107.759
CCOC(=O)c1cnc2ccc(OC)cc2c1NCCN1CCOCC1 [CBK304199] | 29.6916
O=C1Nc2ccc(Br)cc2C(=O)N2CCNC[C@H]12 [CBK289583] | 104.128
CC1=C[C@@H](CO)[C@H](C(C)C)C[C@H]1Cc1nnc(Cc2c[nH]c3ccccc23)o1 [CBK289223] | 106.464
Fc1cccc(-c2nccnc2NCCc2ccncc2)c1 [CBK036763] | 114.846
NC1=C2NN(c3ccc(Cl)cc3Cl)N=C2N(c2ccccc2)N1 [CBK107773] | 65.2927
Fc1cc(Br)ccc1COc1cccnc1Cl [CBK161281] | 58.679
CCC1CCCCN1S(=O)(=O)c1cccc2c(S(=O)(=O)N3CCCCC3CC)cccc12 (stereo not drawn) [CBK262073] | 98.9361
CC(C)[C@H](NC(=O)c1cc2cc(Cl)ccc2n1C)C(=O)N1CCC(C(=O)O)CC1 [CBK286771] | 83.0673
O=C(O)c1ccc2c(c1)c(C(C(=O)O)N1CCCC1)cn2Cc1ccccc1 (stereo not drawn) [CBK286633] | 78.7717
COc1ccc(CN2CCC(N3CCN(c4ccccc4F)CC3)CC2)cc1OCc1ccccc1 [CBK264720G] | 99.9622
O=C1C[C@H]2[C@H](CC3(SCCS3)[C@@H]2CO)O1 [CBK006615] | 72.7376
O=C(OCc1csc2ccc(Cl)cc12)N1CCOCC1 [CBK200164] | 111.878

Structure (SMILES) | % of control remaining
CCCCNC(=O)CCn1c(=O)[nH]c2ccccc2c1=O [CBK287824] | 85.9196
Cc1nn(C)c(C)c1-c1ccc(=O)n(Cc2ccc(F)cc2)n1 [CBK282258] | 73.4965
COc1ccc(C(C)C)cc1-c1nccnc1NCc1ccco1 [CBK036672] | 145.205
Cc1cc(C(=O)O)ccc1-c1ccc(/C=N/n2cnnc2)o1 [CBK264713] | 104.665
COc1cccc2c(O)cnnc12 [CBK026139] | 42.2453
CC1CN(S(=O)(=O)c2ccc3c(c2)C(=O)c2cc(S(=O)(=O)N4CC(C)OC(C)C4)ccc2-3)CC(C)O1 (stereo not drawn) [CBK263355] | 113.087
O=C(O)COCC(=O)N[C@H]1CCN2C(=O)c3ccc(Cl)cc3NC(=O)[C@H]12 [CBK289342] | 115.578
Cc1noc(COc2ccc(OCc3nc(C)no3)cc2)n1 [CBK261364] | 109.457
Cc1ccc(OCc2cccc3nsnc23)cc1[N+](=O)[O-] [CBK266063] | 87.7606
CC(=O)Nc1ccc(S(=O)(=O)Nc2ccc(-c3csc(C)n3)cc2)cc1 [CBK266261] | 113.946
Cc1oc(-c2ccccc2)cc1C(=O)Nc1ccccc1N1CCCNCC1 [CBK038940T] | 76.0373
c1cncc(C(N2CCOCC2)N2CCOCC2)c1 [CBK260999] | 99.8376
FC(F)(F)c1nc2ccccc2nc1Sc1ccccn1 [CBK093781] | 88.4807
Cn1ccnc1C1(O)CCN(C(=O)c2ccc(F)cc2)CC1 [CBK283541] | 106.483
CCc1ccc(OCc2nnc(SCC(=O)NCCCC(=O)O)n2CC(C)C)cc1 [CBK295321] | 108.934
CCCCc1ccc(-c2nc(NC(=O)NCC)cc3cccnc23)cc1 [CBK081231] | 51.5181
Cc1ccc(CNC(=O)COc2ccc(S(=O)(=O)N3CCOCC3)cc2)cc1 [CBK269816] | 97.131
Cc1ccc(C2=CCN(CC(=O)NCc3ccco3)CC2)o1 [CBK283632] | 94.3124
